# Measurements reported in the supplement of paper PMC10126150.
# Values marked as one replicate rest on one cluster of the flow cell; about a third of the high ones do not repeat.
# Test system: ATP
# Experiment: switch fluorescence ratio, 500 uM ATP over buffer (Cy3 cluster intensity, sum of 5 cycles each) (fold (ratio)); higher = stronger signal-on switching upon ATP binding; sequences stand for … in TCGTCGGCAGCGTCAGATGTGTATAAGAGACAGTTTTTTTTTTTTTTTTTTTTTTTTT…TC
# Details: aptamer strand: ATP DNA aptamer (quencher-CACCTGGGGGAGTATTGCGGAGGAAGG + anchor), 100 nM annealed; ATP concentration: 500 uM; one replicate
# How it was run: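 Clusters with intensities outside 100-1000 RFU were excluded. The remaining Cy3-labelled switching-strand clusters on a modified Illumina MiSeq flow-cell had been annealed to 100 nM quencher-labelled ATP aptamer and imaged in selection buffer, then after 15 min with 500 uM ATP at 22 °C, for five cycles separated by NaOH stripping and re-annealing. The fluorescence ratio, averaged per switch-domain sequence, is each cluster's summed target-cycle Cy3 intensity over its summed buffer-cycle Cy3 intensity.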
# 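Note: ATP exposure 15 min at 22 °C before imaging.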
row,Sequence,switch fluorescence ratio
1,TATGTCGTTG,1
2,CAGTTTACAG,1.01
3,GGATTTAGAG,1.02
4,CTGCGGATCA,1.01
5,GCCTCACGCT,1.08
6,AATGTCCTCT,0.983
7,TGGGCCAGTC,0.975
8,TTAAAGAGTG,1.04
9,AGTACTGTCC,1.06
10,CACCGTTAGT,1.04
11,TTACCTCTTC,1.09
12,TTGGTTCTTT,0.978
13,TTGCACAGGC,1.02
14,CTCGCAGAGT,1.02
15,TTGCACCGTG,1
16,CGTCGCGTGC,0.971
17,ATGGATTACA,1.03
18,TATCATGTGG,0.969
19,CTAACGGCTT,1.01
20,ACGAATTT,1.06
21,TGCCGATGCT,1.01
22,TAGGATTTAT,0.936

row,Sequence,switch fluorescence ratio
1,AAGCTGGCAG,1.02
2,ATCGTAATCA,1.06
3,AAAGTCTTTC,1.01
4,TAATCCCTGC,1.04
5,GTATGGAGGA,0.977
6,TAAAGAGCTA,1.02
7,CATACTGGGG,1
8,AGGAAATTGC,0.965
9,ATCTTGGCTA,1.02
10,CTCAGGTCCG,0.99
11,ATCATTTTGG,0.946
12,AAGCTTATAC,4.62
13,CACTTCAGTA,1.04
14,TTCGTATGAC,1.02
15,GTGAGGGCCT,0.993
16,GTCAATTTAA,1
17,AATGGTTACT,0.989
18,TACGGTTGCT,1.01
19,AGCGGGTATG,1.06
20,TAGGGTGAGA,1.02
21,ACGGGTGTTG,1.06
22,TGACACTGGA,0.999

row,Sequence,switch fluorescence ratio
1,ATAGGTACTC,1.02
2,GCAACCGGTG,1.12
3,AAGAAGTGCG,1.06
4,GGGCGAAACG,1.02
5,CCGCTGATGG,3.27
6,TGGGAGCCTA,0.951
7,TTGTCGGATC,0.966
8,GCGGGCGTAC,1.11
9,TTGCTTTAAG,0.983
10,ACTAGCTGGG,1.01
11,ACTGAGAGCG,1.03
12,TATAGGCCTT,1
13,AAATCAATTC,1.03
14,GGAGAGCACG,0.923
15,AACTGATCAA,1.02
16,CGATATACT,1.57
17,CCAGTTGTGA,1.02
18,CCCGTCAGCT,1.05
19,CATTCCGGTT,1.02
20,TTAATTGCCC,1.04
21,GGAACGAGGT,1.01
22,GATGCATCAG,0.998

row,Sequence,switch fluorescence ratio
1,TAAAAGTTGA,0.97
2,ACCAACCTTT,1.13
3,ATTTGGTAG,1.04
4,TGAGTAGAG,1.01
5,ACATTTTTGG,1.01
6,TCATGGCCCT,1.01
7,ATTTTACCGT,1.04
8,TGTTCTGAAG,0.981
9,GGGCGAGGAT,0.998
10,GGCGATATTC,1.08
11,ACAGGATTCA,0.998
12,ATGGACGCAG,0.952
13,TTAGAAGTAC,1.31
14,TGAGACGGAT,0.988
15,TCCGGCTTGC,1.01
16,CACTGTCACG,1.25
17,TGATAGTGTT,0.953
18,TGTGAGAGCT,0.986
19,CCGGGCGGCA,1.06
